Assay results: PubChem BioAssay AID624417 (National Center for Advancing Translational Sciences (NCATS), 2012)
About 6,400 (1.6%) of roughly 410,000 compounds were called active. Inconclusive results, whose numbers are uncertain, are shown with a selection of clear calls. The call rests on the fitted dose curve; in most records, active means well fitted inhibition curve with a large enough effect; inconclusive means small, poorly fitted or top-dose-only effect; inactive means no such curve, though single readings can be large or run the other way. No potency is given beside an inconclusive call; the fits are too rough.
Further: nearly all actives have a fitted effect of over 55% in size.
On the % scale 0 is the no-effect control and ±100 the full control effect; potency means the concentration at half of the fitted maximal effect; tags describe the fitted curve by direction and shape.

These compounds were tested against Glucagon-like peptide 1 receptor (Homo sapiens) (UniProt P43220) (assay: qHTS of GLP-1 Receptor Inverse Agonists (Inhibition Mode)). Conditions: HEK293 GLP-1R CRE-luciferase, luminescence, 24 h; Potency: GLP-1R form is constitutively active unless noted; activity change, negative = inhibition: at 38.3 µM (top of the series) unless noted.
Chain of UniProt P43220 (P43220 whole entry, looked up): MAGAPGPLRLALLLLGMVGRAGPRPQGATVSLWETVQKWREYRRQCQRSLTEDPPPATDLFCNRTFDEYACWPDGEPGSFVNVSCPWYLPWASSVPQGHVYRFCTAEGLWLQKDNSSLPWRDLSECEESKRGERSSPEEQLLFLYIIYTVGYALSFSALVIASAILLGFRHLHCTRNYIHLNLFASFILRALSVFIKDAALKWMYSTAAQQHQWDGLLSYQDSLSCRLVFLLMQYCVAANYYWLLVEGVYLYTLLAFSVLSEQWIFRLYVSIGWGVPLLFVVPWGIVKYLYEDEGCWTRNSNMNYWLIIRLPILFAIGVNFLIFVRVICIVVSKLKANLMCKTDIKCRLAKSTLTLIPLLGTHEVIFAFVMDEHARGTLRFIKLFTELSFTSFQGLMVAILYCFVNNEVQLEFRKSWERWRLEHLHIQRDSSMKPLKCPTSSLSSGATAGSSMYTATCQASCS
In short: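 Assay principle: reduced luminescence from a cAMP-responsive reporter in HEK293 cells co-expressing a constitutively active GLP-1R. Conditions: 24 hr compound incubation, 37 deg C, 5% CO2.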
With `CN1C2CCC1CC(OC(=O)c1ccc(Cl)cc1)C2` (stereo unspecified) the Potency was inconclusive [inhibitor, partial curve, poor fit].
With `Cc1ccc(C(=O)N[C@@H](C)CN2C3=NC[C@@H](Cc4ccccc4)N3C[C@H]2Cc2ccc(O)cc2)cc1Br` the Potency was inconclusive [inhibitor, single point].
In the case of `Cc1ccc(OCC(=O)N2CCN(Cc3ccc4c(c3)OCO4)CC2)cc1`, the Potency was inconclusive [inhibitor, partial curve, poor fit].
With `COC(=O)C[C@]1(C(=O)OC)CN(C#N)N(c2ccc(Cl)cc2)C12c1ccccc1-c1ccccc12` the Potency was inconclusive [inhibitor, full curve, poor fit].
In the case of `CCOC(=O)C1C(=O)NC23CCCC2C1c1ccccc1O3` (stereo unspecified), the Potency was inconclusive [inhibitor, partial curve, poor fit].
In the case of `CN(Cc1ccc(OC(F)F)cc1)Cc1nc2c(Br)cc(Br)cc2c(=O)[nH]1`, the Potency was inconclusive [inhibitor, partial curve].
For `CCCOc1ccc(C(=O)Nc2ccc(-c3cc4ccccc4oc3=O)c(C)c2)cc1`, the Potency was inconclusive [inhibitor, full curve, poor fit].
With `Cc1ccc(NS(=O)(=O)c2c(F)cc(F)c(Cl)c2F)cc1S(=O)(=O)N1CCOCC1` the Potency was inconclusive [inhibitor, partial curve].
With `Cc1ccc(CN(C)C(=O)c2cccc(S(=O)(=O)N3CCN(c4ccccc4)CC3)c2)cc1` the Potency was inconclusive [inhibitor, single point].
`CC(Cc1ccsc1)NCc1cn[nH]c1-c1ccc(F)cc1F` (stereo unspecified) was tested, and the Potency was inconclusive [inhibitor, single point].
In the case of `O=C(Cc1ccccc1)N1CCN(Cc2cccc(Cl)c2)CC1`, the Potency was inconclusive [inhibitor, partial curve, poor fit].
For `COc1ccc(CN2CCCC(C(=O)c3cccc(Cl)c3)C2)cc1` (stereo unspecified), the Potency was inconclusive [inhibitor, single point].
In the case of `COc1ccc(Cc2c(O)[nH]c(=S)[nH]c2=O)cc1`, the “activity change, negative = inhibition” value was inactive: 14.8%.
With `CCOc1ccc(-c2cc(C(=O)N3CCN(S(=O)(=O)c4cc(Cl)ccc4OC)CC3)[nH]n2)cc1` the Potency was inconclusive [inhibitor, single point].
In the case of `Clc1ccc(OCC#CCN2CCCCCC2)cc1`, the Potency was inconclusive [inhibitor, partial curve, poor fit].
In the case of `CSc1ccc(C(=O)C2CCCN(Cc3cccnc3)C2)cc1` (stereo unspecified), the Potency was inconclusive [inhibitor, single point].
In the case of `Cc1oc(-c2cccc(Cl)c2)nc1CN1CCC(C(=O)NCCCN2CCN(c3ccc(F)cc3)CC2)CC1`, the Potency was inconclusive [inhibitor, partial curve, poor fit].
For `COC(=O)C1=C(c2ccc(Cl)c(C(F)(F)F)c2)C[C@@H]2CC[C@H]1N2C(=O)NCC1CC1`, the Potency was inconclusive [inhibitor, partial curve, poor fit].
For `C[C@H](CO)N1C[C@H](C)[C@H](CN(C)S(=O)(=O)c2ccc(Cl)cc2)OCc2ccccc2-c2c(n(C)c3ccccc23)C1=O`, the Potency was inconclusive [inhibitor, full curve, poor fit].
`O=C(N/N=C/c1c(O)n(CCc2ccccc2)c(=O)[nH]c1=O)c1ccccc1` was tested, and the “activity change, negative = inhibition” value was inactive: 5.14%.
For `Cc1ccccc1-[n+]1c(-c2ccccc2)cc(-c2ccccc2)cc1-c1ccccc1`, the Potency was inconclusive [inhibitor, full curve, poor fit].
With `C/C(=N\Nc1ccccc1)c1c(O)n(-c2ccccc2)c(=O)[nH]c1=O` the Potency was inconclusive [inhibitor, full curve, poor fit].
For `CN1CC(C(=O)c2ccc(F)cc2)C(c2c(F)cccc2Cl)C1` (stereo unspecified), the Potency was inconclusive [inhibitor, partial curve, poor fit].
In the case of `C/C(=C\C(=O)c1ccc(Br)cc1)NCc1ccccc1`, the Potency was inconclusive [inhibitor, single point].
With `O=C1NCN(c2ccccc2)C12CCN(C(CCc1ccccc1)c1nnnn1C1CCCC1)CC2` (stereo unspecified) the Potency was inconclusive [inhibitor, single point].
For `COP(=O)(OC)c1nc(-c2cccc3ccccc23)oc1N1CCCCC1`, the Potency was inconclusive [inhibitor, single point].
`CCC(=O)c1ccc(OCC(=O)N2CCN(CC(=O)Nc3ccccc3C(F)(F)F)CC2)cc1` was tested, and the Potency was inconclusive [inhibitor, partial curve].
For `CN(C)C1(c2nnnn2CCOC(=O)Nc2ccc(Cl)cc2)CCCCC1`, the Potency was active: 7.08 µM [setting not given].
With `Cc1nc(NS(=O)(=O)c2cccc([N+](=O)[O-])c2)sc1C(C)(C)C` the Potency was inconclusive [inhibitor, single point].
In the case of `COc1cccc(C2SCC(=O)Nc3c2c(C)nn3-c2ccc(C)c(Cl)c2)c1OC` (stereo unspecified), the Potency was inconclusive [inhibitor, full curve, poor fit].
`CC(=O)O[C@]1(c2ccccc2)CCN(C)[C@H]2CCCC[C@@H]21` was tested, and the Potency was inconclusive [inhibitor, single point].
`COc1ccc(-n2nnnc2C(c2ccccc2)N2CCC(n3c(=O)[nH]c4ccccc43)CC2)cc1` (stereo unspecified) was tested, and the Potency was inconclusive [inhibitor, partial curve].
For `Cn1ncnc2c(=O)n(C)c(=O)nc1-2`, the Potency was inconclusive [inhibitor, full curve, poor fit].
`COc1ccc(CC(=O)N(CCN(C)C)CC2CCCN(Cc3ccccc3F)C2)cc1` (stereo unspecified) was tested, and the Potency was inconclusive [inhibitor, partial curve, poor fit].
With `CC(=O)c1c(O)cc2c3c1OC(C)(C)C1CCC(C)(CC31)O2` (stereo unspecified) the Potency was inconclusive [inhibitor, full curve, poor fit].
With `CCOC(=O)[C@]12Cc3c(cc(OC)c(OC)c3OC)[C@H]1N(Cc1ccccc1)C(=O)c1ccccc12` the Potency was inconclusive [inhibitor, single point].
